Experimental data reported in PubChem BioAssay (NCI).
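A five-concentration, 48-hour dose response in 96-well plates underlies each endpoint, interpolated linearly between surrounding concentrations. The concentration for 50% growth inhibition is given as GI50. The concentration for full growth arrest is given as TGI.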

System: NCI-H322M lung
Assay: growth of human tumour cells (NCI), 48 h

SMILES	GI50	TGI
CC(Nc1ncnc2ccc(-c3cnc(N)nc3)cc12)c1ccccc1 (centres undefined)	2.99 µM	14.4 µM
Cc1[nH]nc2ccc(-c3nc4cnc(N5CCN(C)CC5)cn4c3Nc3ccc(F)cc3Br)cc12	2.72 µM	10.9 µM
